In all, about 81,000 sequences were measured (“one-hybrid fitness for binding parS DNA”: median about -0.17, highest 2% from about 0.51 on). The list shows a part of the results.
B1: Caulobacter ParB omega fusion; a variant is named by its letters at X, in order, B8GW30 (parent)
chain: MESVVVGEPGMSEGRRGLGRGLSALLGEVDAAPAQAPGEQLGGSREAPIEILQRNPDQPRRTFREEDLEDLSNSIREKGVLQPILVRPSPDTAGEYQIVAGERAWRAAQRAGLKTVPIMVRELDDLAVLEIGIIENVQRADLNVLEEALSYKVLMEKFERTQENIAQTIGKSXSHVANXMRLLXLPDEVQSYLVSGELTAXHARAIAAAADPVALAKQIIEGGLSVRETEALARKAPNLSAGKSKGGRPPRVKDTDTQALESDLSSVLGLDVSIDHRGSTGTLTITYATLEQLDDLCNRLTRGI

Variants of: B1
Experiment: one-hybrid fitness for binding parS DNA (scaled: cognate 1, non-cognate 0); higher = stronger binding
Details: with parS DNA site
Procedure, shortened: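 Bacterial one-hybrid selection in E. coli USO rpoZ- hisB- pyrF- with a HIS3 reporter carrying the site 19 bp from the promoter, screening Caulobacter ParB libraries with four specificity codons randomised (NNS). Cells grew 48 hours at 37°C on M9-minus-histidine plus 0.1 mM IPTG and 5 mM 3-AT. Plasmids before and after selection were Illumina-sequenced, three replicate libraries pooled, and variants under 10 reads dropped. Fitness is the log change in variant-to-wild-type read ratio, rescaled to cognate 1, non-cognate 0.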

Variant	one-hybrid fitness for binding parS DNA
LPVK	≤ 0.2
PYSC	≤ 0.2
DRMF	≤ 0.2
QMPQ	≤ 0.2
YAKL	≤ 0.2
MRAI	≤ 0.2
SVAD	≤ 0.2
DSVL	≤ 0.2
SGSR	≤ 0.2
RSDS	0.939
YYDG	≤ 0.2
SFWL	≤ 0.2
KSCG	≤ 0.2
QMGG	≤ 0.2
PITT	≤ 0.2
HRGK	≤ 0.2
YIQR	≤ 0.2
WISA	≤ 0.2
VDMP	≤ 0.2
VIFR	≤ 0.2
CKDY	≤ 0.2
LAKG	≤ 0.2
VSVT	≤ 0.2
LHPP	≤ 0.2
QCWG	≤ 0.2

Variant	one-hybrid fitness for binding parS DNA
HTTM	≤ 0.2
KYEE	≤ 0.2
QPRS	≤ 0.2
QCLY	≤ 0.2
TYSK	≤ 0.2
TSPY	≤ 0.2
IAVG	≤ 0.2
EEPE	≤ 0.2
IRTP	≤ 0.2
WARN	≤ 0.2
KHST	≤ 0.2
QHCM	≤ 0.2
HRPS	≤ 0.2
FPER	≤ 0.2
NPLL	≤ 0.2
LMEL	≤ 0.2
PQSW	≤ 0.2
MNIR	≤ 0.2
RHQA	0.5
MAAR	≤ 0.2
DGAT	≤ 0.2
TIQG	≤ 0.2
LLQM	≤ 0.2
IDRK	≤ 0.2
RWAR	≤ 0.2

Variant	one-hybrid fitness for binding parS DNA
SNPW	≤ 0.2
TDCY	≤ 0.2
GTRI	≤ 0.2
YLTF	≤ 0.2
SRSS	≤ 0.2
HMRF	≤ 0.2
LELG	≤ 0.2
VRLR	≤ 0.2
TPLF	≤ 0.2
CMMT	≤ 0.2
HMFS	≤ 0.2
RRKL	≤ 0.2
QMYT	≤ 0.2
TSDF	≤ 0.2
RRDG	0.888
FVPL	≤ 0.2
LCGR	≤ 0.2
HFML	≤ 0.2
FVGS	≤ 0.2
GDKS	≤ 0.2
MHRF	≤ 0.2
SPRV	≤ 0.2
PCVV	≤ 0.2
APNV	≤ 0.2
LPPG	≤ 0.2

Variant	one-hybrid fitness for binding parS DNA
ETPN	≤ 0.2
GDWT	≤ 0.2
MELG	≤ 0.2
EQMM	≤ 0.2
FKTC	≤ 0.2
HHVE	≤ 0.2
CLIW	≤ 0.2
STVH	≤ 0.2
KSGR	≤ 0.2
DAAS	≤ 0.2
HASS	≤ 0.2
DNNW	≤ 0.2
SDGE	≤ 0.2
LVKT	≤ 0.2
KGNT	≤ 0.2
TKWA	≤ 0.2
VSSD	≤ 0.2
LDCV	≤ 0.2
YHVG	≤ 0.2
SANK	≤ 0.2
PRQV	≤ 0.2
LWSV	≤ 0.2
RTHT	0.908
QPPC	≤ 0.2
YPSW	≤ 0.2

Variant	one-hybrid fitness for binding parS DNA
DMKG	≤ 0.2
KQKR	≤ 0.2
SPSS	≤ 0.2
MCIR	≤ 0.2
NSVS	≤ 0.2
CQMS	≤ 0.2
KKFD	≤ 0.2
ELKG	≤ 0.2
RRDP	≤ 0.2
KGNG	≤ 0.2
PKLS	≤ 0.2
LTEE	≤ 0.2
EAQT	≤ 0.2
PDES	≤ 0.2
WYTL	≤ 0.2
SKNK	≤ 0.2
QPYV	≤ 0.2
YCND	≤ 0.2
PLAT	≤ 0.2
DCGR	≤ 0.2
HEKR	≤ 0.2
QQQV	≤ 0.2
DDNM	≤ 0.2
TKWD	≤ 0.2
PQYT	≤ 0.2

Variant	one-hybrid fitness for binding parS DNA
KVNT	≤ 0.2
VQIV	≤ 0.2
KDMD	≤ 0.2
GGPL	≤ 0.2
SHYT	≤ 0.2
NKHL	≤ 0.2
MKRC	≤ 0.2
TPMS	≤ 0.2
HSAT	≤ 0.2
GHMC	≤ 0.2
GRDF	≤ 0.2
AMHL	≤ 0.2
EKMG	≤ 0.2
VTAY	≤ 0.2
SCHV	≤ 0.2
PSTT	≤ 0.2
GNAD	≤ 0.2
SGLS	≤ 0.2
WSAM	≤ 0.2
MIHC	≤ 0.2
CSYG	≤ 0.2
PTWM	≤ 0.2
HMWR	≤ 0.2
KSFG	≤ 0.2
AFLI	≤ 0.2

Variant	one-hybrid fitness for binding parS DNA
CQTM	≤ 0.2
AFFR	≤ 0.2
NRTY	≤ 0.2
TQAW	≤ 0.2
QVWN	≤ 0.2
KMTT	≤ 0.2
VAMY	≤ 0.2
DAYG	≤ 0.2
YMDY	≤ 0.2
SGCT	≤ 0.2
AYLN	≤ 0.2
LIHT	≤ 0.2
CGNY	≤ 0.2
IQWG	≤ 0.2
QHGG	≤ 0.2
PLTV	≤ 0.2
NPDT	≤ 0.2
PHGN	≤ 0.2
TERT	≤ 0.2
HISV	≤ 0.2
IMRR	≤ 0.2
HTVE	≤ 0.2
RLFT	0.838
TVQT	≤ 0.2
CRRN	≤ 0.2

Variant	one-hybrid fitness for binding parS DNA
DFSR	≤ 0.2
REDT	≤ 0.2
TFGT	≤ 0.2
DHGV	≤ 0.2
YTFY	≤ 0.2
IDSN	≤ 0.2
RTTC	0.991
TNKF	≤ 0.2
CSCR	≤ 0.2
TPHW	≤ 0.2
RVDY	0.427
VLSM	≤ 0.2
LYPI	≤ 0.2
TNHP	≤ 0.2
MRHT	≤ 0.2
NNTE	≤ 0.2
RRLH	≤ 0.2
YPAS	≤ 0.2
HNIG	≤ 0.2
PCLW	≤ 0.2
